Test results reported in the supplement of paper PMC8728848.
The list shows a part of the results.

Key:
Test in all cases: glycan array binding signal (z-score within array); higher = stronger binding
Conditions in all cases: glycan notation: IUPAC condensed, linker removed; mutation: E227G
[1] = biological target: Neu5Ac(a2-3)Gal(b1-3)GlcNAc(b1-6)GalNAc
Summary of the method: (§1)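 Negative Z-scores can be read as non-binding. The Z-score is calculated within each array and then averaged across arrays of one protein sequence at different concentrations or buffers and across linkers. Arrays, 3228 in all, were curated from the Consortium for Functional Glycomics database and kept only where the protein sequence was available.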

[2] = biological target: Neu5Ac(a2-3)Gal(b1-3)GlcNAc6S
Summary of the method: as §1

[3] = biological target: Neu5Ac(a2-3)Gal(b1-3)[Fuc(a1-4)]GlcNAc
Summary of the method: as §1

[4] = biological target: Neu5Ac(a2-3)Gal(b1-3)[Fuc(a1-4)]GlcNAc(b1-3)Gal(b1-3)[Fuc(a1-4)]GlcNAc
Summary of the method: as §1

[5] = biological target: Neu5Ac(a2-3)Gal(b1-3)[Fuc(a1-4)]GlcNAc(b1-3)Gal(b1-4)[Fuc(a1-3)]GlcNAc
Summary of the method: as §1

[6] = biological target: Neu5Ac(a2-3)Gal(b1-3)[GlcNAc(b1-6)]GalNAc
Summary of the method: as §1

[7] = biological target: Neu5Ac(a2-3)Gal(b1-3)[Neu5Ac(a2-6)]GalNAc
Summary of the method: as §1

[8] = biological target: Neu5Ac(a2-3)Gal(b1-3)[Neu5Ac(a2-6)]GlcNAc(b1-3)[Fuc(a1-3)[Gal(b1-4)]GlcNAc(b1-6)]Gal(b1-4)Glc
Summary of the method: as §1

[9] = biological target: Neu5Ac(a2-3)Gal(b1-3)]Neu5Ac(a2-3)Gal(b1-4)]GlcNAc
Summary of the method: as §1

Neu5Ac(a2-3)Gal(b1-4)Glc = biological target: Neu5Ac(a2-3)Gal(b1-4)Glc
Summary of the method: as §1

[10] = biological target: Neu5Ac(a2-3)Gal(b1-4)GlcNAc
Summary of the method: as §1

[11] = biological target: Neu5Ac(a2-3)Gal(b1-4)GlcNAc(b1-2)Man
Summary of the method: as §1

[12] = biological target: Neu5Ac(a2-3)Gal(b1-4)GlcNAc(b1-2)Man(a1-3)[GlcNAc(b1-4)][Neu5Ac(a2-3)Gal(b1-4)GlcNAc(b1-2)Man(a1-6)]Man(b1-4)GlcNAc(b1-4)GlcNAc
Summary of the method: as §1

[13] = biological target: Neu5Ac(a2-3)Gal(b1-4)GlcNAc(b1-2)Man(a1-3)[Neu5Ac(a2-3)Gal(b1-4)GlcNAc(b1-2)Man(a1-6)]Man(b1-4)GlcNAc(b1-4)GlcNAc
Summary of the method: as §1

[14] = biological target: Neu5Ac(a2-3)Gal(b1-4)GlcNAc(b1-2)Man(a1-3)[Neu5Ac(a2-3)Gal(b1-4)GlcNAc(b1-2)Man(a1-6)]Man(b1-4)GlcNAc(b1-4)[Fuc(a1-6)]GlcNAc
Summary of the method: as §1

[15] = biological target: Neu5Ac(a2-3)Gal(b1-4)GlcNAc(b1-2)Man(a1-3)[Neu5Ac(a2-6)Gal(b1-4)GlcNAc(b1-2)Man(a1-6)]Man(b1-4)GlcNAc(b1-4)GlcNAc
Summary of the method: as §1

[16] = biological target: Neu5Ac(a2-3)Gal(b1-4)GlcNAc(b1-2)[Neu5Ac(a2-3)Gal(b1-4)GlcNAc(b1-4)]Man(a1-3)[GlcNAc(b1-4)][Neu5Ac(a2-3)Gal(b1-4)GlcNAc(b1-2)[Neu5Ac(a2-3)Gal(b1-4)GlcNAc(b1-6)]Man(a1-6)]Man(b1-4)GlcNAc(b1-4)GlcNAc
Summary of the method: as §1

[17] = biological target: Neu5Ac(a2-3)Gal(b1-4)GlcNAc(b1-2)[Neu5Ac(a2-3)Gal(b1-4)GlcNAc(b1-4)]Man(a1-3)[GlcNAc(b1-4)][Neu5Ac(a2-3)Gal(b1-4)GlcNAc(b1-4)Man(a1-6)]Man(b1-4)GlcNAc(b1-4)GlcNAc
Summary of the method: as §1

[18] = biological target: Neu5Ac(a2-3)Gal(b1-4)GlcNAc(b1-2)[Neu5Ac(a2-3)Gal(b1-4)GlcNAc(b1-6)]Man(a1-6)[Neu5Ac(a2-3)Gal(b1-4)GlcNAc(b1-2)Man(a1-3)][GlcNAc(b1-4)]Man(b1-4)GlcNAc(b1-4)GlcNAc
Summary of the method: as §1

[19] = biological target: Neu5Ac(a2-3)Gal(b1-4)GlcNAc(b1-3)Gal
Summary of the method: as §1

[20] = biological target: Neu5Ac(a2-3)Gal(b1-4)GlcNAc(b1-3)Gal(b1-3)GlcNAc
Summary of the method: as §1

[21] = biological target: Neu5Ac(a2-3)Gal(b1-4)GlcNAc(b1-3)Gal(b1-4)GlcNAc
Summary of the method: as §1

[22] = biological target: Neu5Ac(a2-3)Gal(b1-4)GlcNAc(b1-3)Gal(b1-4)GlcNAc(b1-2)Man(a1-3)[Neu5Ac(a2-3)Gal(b1-4)GlcNAc(b1-3)Gal(b1-4)GlcNAc(b1-2)Man(a1-6)]Man(b1-4)GlcNAc(b1-4)GlcNAc
Summary of the method: as §1

[23] = biological target: Neu5Ac(a2-3)Gal(b1-4)GlcNAc(b1-3)Gal(b1-4)GlcNAc(b1-3)Gal(b1-4)GlcNAc
Summary of the method: as §1

[24] = biological target: Neu5Ac(a2-3)Gal(b1-4)GlcNAc(b1-3)Gal(b1-4)GlcNAc(b1-3)Gal(b1-4)GlcNAc(b1-2)Man(a1-3)[Neu5Ac(a2-3)Gal(b1-4)GlcNAc(b1-3)Gal(b1-4)GlcNAc(b1-3)Gal(b1-4)GlcNAc(b1-2)Man(a1-6)]GalNAc
Summary of the method: as §1

[25] = biological target: Neu5Ac(a2-3)Gal(b1-4)GlcNAc(b1-3)Gal(b1-4)GlcNAc(b1-3)GalNAc
Summary of the method: as §1

[26] = biological target: Neu5Ac(a2-3)Gal(b1-4)GlcNAc(b1-3)Gal(b1-4)GlcNAc(b1-3)[Neu5Ac(a2-3)Gal(b1-4)GlcNAc(b1-3)Gal(b1-4)GlcNAc(b1-6)]GalNAc
Summary of the method: as §1

[27] = biological target: Neu5Ac(a2-3)Gal(b1-4)GlcNAc(b1-3)Gal(b1-4)GlcNAc(b1-6)[Gal(b1-3)]GalNAc
Summary of the method: as §1

[28] = biological target: Neu5Ac(a2-3)Gal(b1-4)GlcNAc(b1-3)Gal(b1-4)[Fuc(a1-3)]GlcNAc
Summary of the method: as §1

[29] = biological target: Neu5Ac(a2-3)Gal(b1-4)GlcNAc(b1-3)GalNAc
Summary of the method: as §1

B1: Epa1-NP-mutant-E227G (Candida glabrata), Q6VBJ0 (protein)
chain: MILNPALFLNKCVCIYTTLILLLLTNGGYATSSNDISLASKDPTTFPLGCSPDITTPKKGLSMELYSYDFRKKGSYPCWDAAYLDPNYPRTGYKSHRLLAKVDGVTGNINFYYHATKGCTPQLGHLPASYNYPKPLTMTNFTMLLYGYFRPKVTGFHTFTISADDLLFVNFGAGNAFDCCRRDSSADHFGNYQAYAIWGSKTAKDELTVHLDAGVYYPIRLFYNNRGYDGALSFTFKTESNENTVSDFSEYFFSLDDTEEGCPGLISYDSSCASVKTSKIIGIDYHTETPNENLVPITKTIYHLGIPCTGTTTTPLCGSGFYDPLANKCVTINTSSTSSVTKTTSHTTSKEVSFHSSISSQKTLIPKSIPSPYGPIKSQSIPTEMETSSEISSSEYAFSDVISTPSHSPYTKKHSSLNSSSYTSTVIHSLTSYSISQGIFSTSLSEQNITSKSSTDKFSTATSMSNNITQSSIIISQFSTNNENYTTTSMHTSSDKISTETLNNSISTTTSILFSNSSTILKNNTTIISSDKDTHYHPVNPTIVCSTNKTEIICASITQPSISNSNNHWSSSVLKFNSTTVRSTLPSSAGSNETSINVPFSSSTESNTSTSSTSTSNSKMVRSTLPSSAGSNETSISVPFSSSTESNTSTSSTSTSNSKMVRSTLPSSAGSNETSINVPFSSSTESNTSTSSTSTSNSKTVRSTPFSSAGIIMTSLSQRNNKSASSYASSNSKCYNTADSCRKVHSTPSYLLTSSYTSEGVDYDCSLVSTKLKINDTNCVNNKHTTKSCLKTSVTTTIPTLEIKTARKSSSNTIGLHSYPTSSPNKSISSAPIIGYISSFKTIKTASPSYQTSDLTTITTITSLNNPGSTAVENTHESNDKSRKTSSNDISSKHSVIKETKDAVESSNKSHQTNTLKCSSIIIASSSHNSYESLGGTTLTLTLSKVYSPQNNDTLPFLEISEVNPSRTVLPESSKMMQYLTSTEERNKTARNTIATNIVSISTFHFEGEGNAIRMGYTQLLLMLIGIIVMNIGT
[1]
  glycan array binding signal (z-score): -0.128
[2]
  glycan array binding signal (z-score): -0.166
[3]
  glycan array binding signal (z-score): -0.081
[4]
  glycan array binding signal (z-score): -0.152
[5]
  glycan array binding signal (z-score): -0.088
[6]
  glycan array binding signal (z-score): -0.135
[7]
  glycan array binding signal (z-score): -0.173
[8]
  glycan array binding signal (z-score): 0
[9]
  glycan array binding signal (z-score): -0.127
Neu5Ac(a2-3)Gal(b1-4)Glc
  glycan array binding signal (z-score): -0.12
[10]
  glycan array binding signal (z-score): -0.195
[11]
  glycan array binding signal (z-score): -0.135
[12]
  glycan array binding signal (z-score): -0.025
[13]
  glycan array binding signal (z-score): -0.236
[14]
  glycan array binding signal (z-score): 0.006
[15]
  glycan array binding signal (z-score): -0.195
[16]
  glycan array binding signal (z-score): 0.141
[17]
  glycan array binding signal (z-score): -0.201
[18]
  glycan array binding signal (z-score): -0.237
[19]
  glycan array binding signal (z-score): -0.186
[20]
  glycan array binding signal (z-score): -0.035
[21]
  glycan array binding signal (z-score): -0.176
[22]
  glycan array binding signal (z-score): -0.191
[23]
  glycan array binding signal (z-score): -0.15
[24]
  glycan array binding signal (z-score): 0.001
[25]
  glycan array binding signal (z-score): -0.313
[26]
  glycan array binding signal (z-score): -0.096
[27]
  glycan array binding signal (z-score): -0.148
[28]
  glycan array binding signal (z-score): -0.535
[29]
  glycan array binding signal (z-score): -0.113
